Results published in PMC4336329 (PLoS ONE, 2015).
Screen size: about 310,000 compounds; about 14,000 (4.5%) showed an effect of 50% or more. Effects have a minus sign here. The list shows a part of the results.

Biological target: human ether-à-go-go-related gene (hERG) potassium channel (human, UniProt Q12809)
Experiment: primary screen, population patch clamp on CHO cells stably expressing hERG
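Note: peak tail current of the secondary pulse compared with the same well before compound.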

Sequence of human ether-à-go-go-related gene (hERG) potassium channel (Q12809 whole entry, looked up): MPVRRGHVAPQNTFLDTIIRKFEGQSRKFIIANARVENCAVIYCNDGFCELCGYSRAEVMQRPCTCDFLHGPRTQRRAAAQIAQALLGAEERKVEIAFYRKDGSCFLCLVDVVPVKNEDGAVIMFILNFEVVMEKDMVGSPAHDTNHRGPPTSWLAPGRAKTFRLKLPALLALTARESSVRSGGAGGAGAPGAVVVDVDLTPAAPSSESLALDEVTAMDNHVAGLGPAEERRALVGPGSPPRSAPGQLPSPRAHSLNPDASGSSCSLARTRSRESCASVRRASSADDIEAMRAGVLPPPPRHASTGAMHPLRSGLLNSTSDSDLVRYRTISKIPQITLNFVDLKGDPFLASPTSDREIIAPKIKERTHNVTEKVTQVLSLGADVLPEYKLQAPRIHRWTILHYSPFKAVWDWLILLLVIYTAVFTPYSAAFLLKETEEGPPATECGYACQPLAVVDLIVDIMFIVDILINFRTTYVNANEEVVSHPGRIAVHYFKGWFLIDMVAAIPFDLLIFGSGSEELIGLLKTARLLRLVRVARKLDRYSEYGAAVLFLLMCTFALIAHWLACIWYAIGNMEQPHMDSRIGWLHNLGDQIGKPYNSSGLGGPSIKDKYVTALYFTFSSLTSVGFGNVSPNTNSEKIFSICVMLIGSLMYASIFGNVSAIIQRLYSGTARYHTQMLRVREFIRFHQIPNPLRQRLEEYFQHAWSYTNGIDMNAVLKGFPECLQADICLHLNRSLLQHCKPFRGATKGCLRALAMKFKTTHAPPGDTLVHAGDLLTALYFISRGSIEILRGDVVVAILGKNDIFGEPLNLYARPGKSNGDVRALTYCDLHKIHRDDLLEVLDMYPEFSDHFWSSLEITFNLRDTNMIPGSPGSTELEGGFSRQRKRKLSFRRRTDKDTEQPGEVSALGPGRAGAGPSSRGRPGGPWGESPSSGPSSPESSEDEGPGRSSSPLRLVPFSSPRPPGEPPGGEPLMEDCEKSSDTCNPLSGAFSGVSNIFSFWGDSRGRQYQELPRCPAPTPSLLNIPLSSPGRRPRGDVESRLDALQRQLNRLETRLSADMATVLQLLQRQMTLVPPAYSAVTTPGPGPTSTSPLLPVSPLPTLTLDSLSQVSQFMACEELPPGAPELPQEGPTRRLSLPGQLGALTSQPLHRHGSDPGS

Compound	hERG current change (%, negative = inhibition) at 10uM [%]
C1CSC2(N1)C1CC3CC2CC(C1)C31NCCS1.Cl (centres unmarked)	6.93
NC(=O)c1ccc(NC(=O)CCC(=O)c2cccs2)cc1	14.7
CC1CCCN(CCCNS(=O)(=O)c2ccc3c(c2)CCN3C(=O)C2CC2)C1 (centres unmarked)	-3.1
CC(=O)Nc1ccc(OCC(O)Cn2cnc3ccccc32)cc1 (centres unmarked)	16
Cc1nn(C)cc1S(=O)(=O)N1CCN(c2ccc(F)cc2)CC1	-14
COc1ccc(NC(=O)COC(=O)CCCC2=NS(=O)(=O)c3ccccc3N2)cc1Cl	38.8
O=C(CC(C(=O)O)c1ccccc1)Nc1ccccc1 (centres unmarked)	15
Cc1ccc(NC2(c3nnnn3-c3c(C)cccc3C)CCCCC2)cc1	7.77
CC1(C)Oc2ccc3ccc(=O)oc3c2C(/C=N/O)C1=O (centres unmarked)	3.87
COCCCn1c(SCC(=O)N2CCCCC2C)nnc1-c1ccco1 (centres unmarked)	-14.9
Nc1[nH]n(-c2ccccc2)c(=O)c1N=Nc1ccc2c(c1)OCO2	6.37
O=c1c2ccccc2cnn1Cc1n[nH]c(=S)n1-c1ccc(Cl)cc1	14.5
CCOc1ccccc1NC(=O)c1nc(-c2ccccc2)oc1C	8.38
COCCn1c(SCC(=O)Nc2cccc(F)c2)nc2c(c1=O)SCC2	-10.8
O=C1C2CC(O)CN2C(=O)N1c1ccccc1 (centres unmarked)	17
O=c1[nH]c(=O)n(Cc2ccccc2)c(O)c1/C=C1\C=Nc2ccccc21	4.57
CCOC(=O)c1c(-c2cccc(C)c2)csc1NC(=O)c1c(-c2ccccc2)noc1C	3.63
Cc1cccc(C(=O)Oc2ccccc2/C=N/NC(=O)c2ccc(NC(=O)C(C)(C)C)cc2)c1	-4.88
NNC(=O)[C@H](Cc1ccccc1)NC(=O)NCCc1ccccc1	-2.34
CCOC(=O)CSc1nc2cc(C(=O)NCC3CCCO3)ccc2c(=O)n1Cc1ccco1 (centres unmarked)	-39.3

Compound	hERG current change (%, negative = inhibition) at 10uM [%]
CCCCCn1c(Sc2ccccc2)nc2c1c(=O)[nH]c(=O)n2C	-4.78
COc1ccccc1C(C)NCC(=O)Nc1c(F)cccc1F (centres unmarked)	6.88
COCCn1nnnc1C(c1ccc2ncccc2c1)N1CCc2ccccc21 (centres unmarked)	-16.9
O=C(O)CSCCC(=O)Nc1ccc(F)cc1	-7.84
O=C(Nc1nnc(-c2cccnc2)o1)c1cccc(Cl)c1	-2.87
Cc1ccccc1-n1c(SCC(=O)N2CCCC2)nnc1-c1ccccn1	16.1
CSc1nc2oc3c(c2c2nncn12)CC(C)(C)SC3	-0.476
COc1cccc(S(=O)(=O)NCC(=O)N2CCCCCC2)c1	27.6
Cc1ccc(NC(=O)Cc2ccc(Cl)cc2)cc1S(=O)(=O)N1CCCCCC1	2.51
Cc1cc(C)nc(SCc2nnc(SCC(=O)Nc3ccccc3C)n2Cc2ccco2)n1	-14
CSc1nc(N(C)NC(=O)c2cccc(C)c2)c2ccccc2n1	-25.7
O=C(O)CCNC(=O)C12CC3CC(CC(C3)C1)C2	28.1
O=C1C2C3C=CC(C3)C2C(=O)N1/N=C/c1ccc(-c2ccccc2[N+](=O)[O-])o1 (centres unmarked)	-30.1
CC(=O)N/N=C(\C)C1COc2ccccc2O1 (centres unmarked)	10.9
CCOc1ccc2[nH]c(=O)c(CN(CCN3CCOCC3)Cc3nnnn3C(C)(C)CC)cc2c1	-6.85
O=C1CNC(=O)c2c(nc3n2CCC3)N1	-3.76
Cc1ccc2c(CN3CCC(C(N)=O)CC3)cc(=O)oc2c1C	14.4
CCOC(=O)CSc1nnc(CNC(=O)c2cccc(C)c2)n1C	2.16
COc1cccc(N2CCN(C(=S)Nc3ccc(F)cc3)CC2)c1	16.1
S=C(Nc1ccccc1Cl)N(Cc1cccnc1)Cc1ccco1	-4.94

Compound	hERG current change (%, negative = inhibition) at 10uM [%]
CCOC(=O)C1(CCOc2ccccc2)CCN(Cc2ccccc2O)CC1	-30.8
CCSc1nnc(SCC(=O)N2CCN(C(=O)c3ccco3)CC2)s1	-33.4
CC#CC[N+](C)(C)CC(=O)c1ccccc1.[Br-]	5.71
COc1cccc(NC(=O)NC(=O)c2c(C)cc(Cl)nc2Cl)c1	-6.63
CCCCN(C(=O)c1ccc(Br)o1)C1CCS(=O)(=O)C1 (centres unmarked)	-11.9
COc1ccccc1NCCC(=O)O	13.2
CCN1CCCC1CNC(=O)c1cc(N)ccc1OC.O.O=C(O)C(=O)O (centres unmarked)	13.5
CC(C)Cn1c(SCC(=O)c2ccc(Cl)s2)nnc1-c1ccco1	-76.7
CNC(=S)N1N=C(c2ccc(C)cc2)CC1c1ccc(OC)cc1 (centres unmarked)	-0.896
O=C(N/C(=C\c1cccc([N+](=O)[O-])c1)C(=O)N1CCCCC1)c1cccs1	7.93
c1cc(-c2noc(CCC3CCCC3)n2)ccn1	-1.83
Cc1ncn2cc(-c3ccc(Cl)cc3Cl)[nH]c(=O)c12	2.09
NC(=O)c1ccc(C(=O)N/N=C(/Cc2ccccc2)c2ccccc2)cc1	18.6
COc1cccc(NC(=O)c2cc([N+](=O)[O-])ccc2N2CCN(C)CC2)c1	-57.7
O=C(OCC(=O)N1CCOCC1)c1c(Cl)ccc(Cl)c1Cl	-15.9
CC(=O)c1cccc(NC(=O)N2CCN(S(C)(=O)=O)CC2)c1	5.44
Cc1cnc(NC(=O)c2ccncc2)s1	10.2
CC(C)OP(=O)(OC(C)C)C(NC(=O)c1ccccc1Br)C(N)=O (centres unmarked)	3.63
Nc1c2c(nc3sc4c(c13)CCCC4)-c1ccccc1CC2	11.7
